Assay [1] deals with T1, Vps4p-HA (S. cerevisiae) (UniProt P52917).
T1 sequence: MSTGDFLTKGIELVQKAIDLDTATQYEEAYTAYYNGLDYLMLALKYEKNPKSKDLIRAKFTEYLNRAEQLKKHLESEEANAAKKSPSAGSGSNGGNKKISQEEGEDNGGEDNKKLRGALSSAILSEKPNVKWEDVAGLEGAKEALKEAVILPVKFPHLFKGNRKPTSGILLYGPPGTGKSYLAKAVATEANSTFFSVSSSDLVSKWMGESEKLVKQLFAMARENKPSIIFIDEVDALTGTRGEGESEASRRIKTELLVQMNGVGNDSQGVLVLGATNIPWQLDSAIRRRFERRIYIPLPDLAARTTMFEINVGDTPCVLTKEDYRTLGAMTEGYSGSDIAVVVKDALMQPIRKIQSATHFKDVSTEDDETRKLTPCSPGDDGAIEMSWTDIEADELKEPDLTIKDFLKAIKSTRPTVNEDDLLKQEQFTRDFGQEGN
The assay can be described thus: co-IP; vps4Δ yeast expressing HA-tagged ESCRT proteins with or without 1a; lysed in RIPA buffer (1% NP-40, 0.1% SDS, 0.5% sodium deoxycholate, 150 mM NaCl, Tris pH 8.0); anti-1a or anti-HA antibodies and Protein A Sepharose overnight at 4°C; immunoblot with anti-1a or anti-HA. (In general: A western blot detects proteins with antibodies after separation by electrophoresis.)

The target in assay [2] is T2, Vta1p-HA (S. cerevisiae) (UniProt Q06263).
T2 sequence: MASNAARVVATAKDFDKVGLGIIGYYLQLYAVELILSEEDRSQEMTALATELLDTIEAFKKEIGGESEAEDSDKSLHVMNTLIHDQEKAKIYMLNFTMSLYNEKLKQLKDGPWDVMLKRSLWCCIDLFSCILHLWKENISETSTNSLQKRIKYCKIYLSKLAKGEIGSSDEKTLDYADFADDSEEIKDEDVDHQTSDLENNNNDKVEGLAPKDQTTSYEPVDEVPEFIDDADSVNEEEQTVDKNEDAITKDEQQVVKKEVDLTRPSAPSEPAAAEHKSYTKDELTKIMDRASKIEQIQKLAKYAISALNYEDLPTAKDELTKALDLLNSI
Described as above.

Assay [3] addresses T3, Vps23p-HA (S. cerevisiae) (UniProt P25604).
T3 sequence: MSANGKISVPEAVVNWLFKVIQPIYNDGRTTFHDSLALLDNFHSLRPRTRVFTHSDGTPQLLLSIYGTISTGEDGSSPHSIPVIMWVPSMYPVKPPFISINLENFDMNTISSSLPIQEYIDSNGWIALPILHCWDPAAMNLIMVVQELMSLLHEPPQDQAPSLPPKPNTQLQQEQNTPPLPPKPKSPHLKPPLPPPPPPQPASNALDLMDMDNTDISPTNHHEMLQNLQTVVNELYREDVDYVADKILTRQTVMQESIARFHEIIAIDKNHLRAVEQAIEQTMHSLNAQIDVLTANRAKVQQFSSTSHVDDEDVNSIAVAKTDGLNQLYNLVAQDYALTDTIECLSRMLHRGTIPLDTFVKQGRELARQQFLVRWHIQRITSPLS
The assay is described as above.

The target of assay [4] is T4, Snf7p-HA (S. cerevisiae) (UniProt P39929).
T4 sequence: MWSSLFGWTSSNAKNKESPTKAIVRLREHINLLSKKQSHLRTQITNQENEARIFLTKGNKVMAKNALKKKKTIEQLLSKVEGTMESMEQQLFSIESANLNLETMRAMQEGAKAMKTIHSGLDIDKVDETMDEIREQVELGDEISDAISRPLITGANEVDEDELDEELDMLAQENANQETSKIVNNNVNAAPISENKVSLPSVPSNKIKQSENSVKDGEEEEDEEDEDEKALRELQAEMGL
Described as above.

The target in assay [5] is T5, Vps20p-HA (S. cerevisiae) (UniProt Q04272).
T5 sequence: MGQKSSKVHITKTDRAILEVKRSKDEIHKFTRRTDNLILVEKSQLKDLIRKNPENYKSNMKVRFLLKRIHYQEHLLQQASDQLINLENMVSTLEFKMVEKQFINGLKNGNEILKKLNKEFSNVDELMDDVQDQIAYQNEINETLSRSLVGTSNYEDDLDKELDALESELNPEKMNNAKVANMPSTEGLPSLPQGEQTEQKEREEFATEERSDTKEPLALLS
Described as above.

Assay [6] addresses T6, Rtn1p-GFP (S. cerevisiae) (UniProt Q04947).
T6 sequence: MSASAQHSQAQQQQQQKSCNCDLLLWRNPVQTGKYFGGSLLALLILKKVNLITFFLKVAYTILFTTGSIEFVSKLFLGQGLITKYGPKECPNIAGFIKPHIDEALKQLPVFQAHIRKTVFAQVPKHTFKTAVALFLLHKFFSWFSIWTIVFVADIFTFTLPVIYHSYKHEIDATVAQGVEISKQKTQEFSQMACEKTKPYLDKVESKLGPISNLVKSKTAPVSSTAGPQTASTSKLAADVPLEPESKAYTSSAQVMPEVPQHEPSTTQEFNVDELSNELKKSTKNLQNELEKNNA
The assay can be described thus: co-IP; yeast expressing Rtn1p-GFP (chromosomal) and Snf7p-HA with or without 1a; RIPA lysate; IP with anti-GFP antibody and Protein A Sepharose; immunoblot with anti-1a, anti-GFP or anti-HA.

Assay [7] has as its target T7, Brome mosaic virus (BMV) 1a protein (brome mosaic virus) (UniProt P03588).
T7 sequence: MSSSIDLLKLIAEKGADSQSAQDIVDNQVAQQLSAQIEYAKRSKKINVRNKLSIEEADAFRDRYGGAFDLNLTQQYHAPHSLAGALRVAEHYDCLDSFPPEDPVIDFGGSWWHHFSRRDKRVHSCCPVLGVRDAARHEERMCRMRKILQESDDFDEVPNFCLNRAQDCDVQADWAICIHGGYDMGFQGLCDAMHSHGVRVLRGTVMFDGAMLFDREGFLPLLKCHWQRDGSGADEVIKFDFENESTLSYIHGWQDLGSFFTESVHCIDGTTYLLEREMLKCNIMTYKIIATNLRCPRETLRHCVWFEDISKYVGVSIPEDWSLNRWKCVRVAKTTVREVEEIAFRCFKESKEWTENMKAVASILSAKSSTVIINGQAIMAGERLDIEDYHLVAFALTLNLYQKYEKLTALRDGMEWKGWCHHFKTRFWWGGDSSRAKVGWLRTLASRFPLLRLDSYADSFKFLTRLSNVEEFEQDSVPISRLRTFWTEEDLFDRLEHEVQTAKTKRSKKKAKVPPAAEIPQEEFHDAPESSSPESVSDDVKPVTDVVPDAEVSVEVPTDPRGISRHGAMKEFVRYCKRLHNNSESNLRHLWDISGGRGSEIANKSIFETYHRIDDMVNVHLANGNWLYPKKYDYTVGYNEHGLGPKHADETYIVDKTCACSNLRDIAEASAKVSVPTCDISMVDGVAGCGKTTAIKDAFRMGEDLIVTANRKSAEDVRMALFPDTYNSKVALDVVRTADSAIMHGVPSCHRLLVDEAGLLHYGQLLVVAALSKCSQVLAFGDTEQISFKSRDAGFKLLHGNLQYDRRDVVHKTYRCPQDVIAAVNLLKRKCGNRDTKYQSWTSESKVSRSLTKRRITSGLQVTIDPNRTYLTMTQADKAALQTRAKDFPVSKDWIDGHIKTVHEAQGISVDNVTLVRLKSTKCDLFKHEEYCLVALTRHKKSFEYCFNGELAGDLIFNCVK
The assay can be described thus: co-IP; vps4Δ yeast expressing HA-tagged ESCRT proteins with or without 1a; lysed in RIPA buffer (1% NP-40, 0.1% SDS, 0.5% sodium deoxycholate, 150 mM NaCl, Tris pH 8.0); anti-1a or anti-HA antibodies and Protein A Sepharose overnight at 4°C; immunoblot with anti-1a or anti-HA.

No constants are given. Whether binding was seen depends on the method and setting. Binding seen in cells or lysates may run through a third protein. Some binding calls cover weakened binding; strength is not graded here. Where a sequence is shown, tags or fusion partners need not be part of it.

B1: Brome mosaic virus (BMV) 1a protein (protein, UniProt P03588 1-961)
chain: MSSSIDLLKLIAEKGADSQSAQDIVDNQVAQQLSAQIEYAKRSKKINVRNKLSIEEADAFRDRYGGAFDLNLTQQYHAPHSLAGALRVAEHYDCLDSFPPEDPVIDFGGSWWHHFSRRDKRVHSCCPVLGVRDAARHEERMCRMRKILQESDDFDEVPNFCLNRAQDCDVQADWAICIHGGYDMGFQGLCDAMHSHGVRVLRGTVMFDGAMLFDREGFLPLLKCHWQRDGSGADEVIKFDFENESTLSYIHGWQDLGSFFTESVHCIDGTTYLLEREMLKCNIMTYKIIATNLRCPRETLRHCVWFEDISKYVGVSIPEDWSLNRWKCVRVAKTTVREVEEIAFRCFKESKEWTENMKAVASILSAKSSTVIINGQAIMAGERLDIEDYHLVAFALTLNLYQKYEKLTALRDGMEWKGWCHHFKTRFWWGGDSSRAKVGWLRTLASRFPLLRLDSYADSFKFLTRLSNVEEFEQDSVPISRLRTFWTEEDLFDRLEHEVQTAKTKRSKKKAKVPPAAEIPQEEFHDAPESSSPESVSDDVKPVTDVVPDAEVSVEVPTDPRGISRHGAMKEFVRYCKRLHNNSESNLRHLWDISGGRGSEIANKSIFETYHRIDDMVNVHLANGNWLYPKKYDYTVGYNEHGLGPKHADETYIVDKTCACSNLRDIAEASAKVSVPTCDISMVDGVAGCGKTTAIKDAFRMGEDLIVTANRKSAEDVRMALFPDTYNSKVALDVVRTADSAIMHGVPSCHRLLVDEAGLLHYGQLLVVAALSKCSQVLAFGDTEQISFKSRDAGFKLLHGNLQYDRRDVVHKTYRCPQDVIAAVNLLKRKCGNRDTKYQSWTSESKVSRSLTKRRITSGLQVTIDPNRTYLTMTQADKAALQTRAKDFPVSKDWIDGHIKTVHEAQGISVDNVTLVRLKSTKCDLFKHEEYCLVALTRHKKSFEYCFNGELAGDLIFNCVK
On to B1, for which the binding result is reported as “no binding” in assay [1]; “no binding” in assay [2]; “no binding” in assay [3]; “binds” in assay [4]; “no binding” in assay [5]; “binds” in assay [6].

B2: Snf7p-HA (protein, UniProt P39929 1-240)
chain: MWSSLFGWTSSNAKNKESPTKAIVRLREHINLLSKKQSHLRTQITNQENEARIFLTKGNKVMAKNALKKKKTIEQLLSKVEGTMESMEQQLFSIESANLNLETMRAMQEGAKAMKTIHSGLDIDKVDETMDEIREQVELGDEISDAISRPLITGANEVDEDELDEELDMLAQENANQETSKIVNNNVNAAPISENKVSLPSVPSNKIKQSENSVKDGEEEEDEEDEDEKALRELQAEMGL
On to B2, for which the binding entry in assay [7] is listed as “binds”; in assay [6], “no binding”.

The record behind these values is publication PMC4351987.
